Laboratory results: the supplement of paper PMC3334620
The full ranking holds about 33,000 sequences; the median of “E-score (-0.5 to 0.5)” is about -0.012, and the highest 2% start at about 0.29. This is one part of the list.

Molecular target: T1, Ybr033w (UniProt P38073)
T1 sequence: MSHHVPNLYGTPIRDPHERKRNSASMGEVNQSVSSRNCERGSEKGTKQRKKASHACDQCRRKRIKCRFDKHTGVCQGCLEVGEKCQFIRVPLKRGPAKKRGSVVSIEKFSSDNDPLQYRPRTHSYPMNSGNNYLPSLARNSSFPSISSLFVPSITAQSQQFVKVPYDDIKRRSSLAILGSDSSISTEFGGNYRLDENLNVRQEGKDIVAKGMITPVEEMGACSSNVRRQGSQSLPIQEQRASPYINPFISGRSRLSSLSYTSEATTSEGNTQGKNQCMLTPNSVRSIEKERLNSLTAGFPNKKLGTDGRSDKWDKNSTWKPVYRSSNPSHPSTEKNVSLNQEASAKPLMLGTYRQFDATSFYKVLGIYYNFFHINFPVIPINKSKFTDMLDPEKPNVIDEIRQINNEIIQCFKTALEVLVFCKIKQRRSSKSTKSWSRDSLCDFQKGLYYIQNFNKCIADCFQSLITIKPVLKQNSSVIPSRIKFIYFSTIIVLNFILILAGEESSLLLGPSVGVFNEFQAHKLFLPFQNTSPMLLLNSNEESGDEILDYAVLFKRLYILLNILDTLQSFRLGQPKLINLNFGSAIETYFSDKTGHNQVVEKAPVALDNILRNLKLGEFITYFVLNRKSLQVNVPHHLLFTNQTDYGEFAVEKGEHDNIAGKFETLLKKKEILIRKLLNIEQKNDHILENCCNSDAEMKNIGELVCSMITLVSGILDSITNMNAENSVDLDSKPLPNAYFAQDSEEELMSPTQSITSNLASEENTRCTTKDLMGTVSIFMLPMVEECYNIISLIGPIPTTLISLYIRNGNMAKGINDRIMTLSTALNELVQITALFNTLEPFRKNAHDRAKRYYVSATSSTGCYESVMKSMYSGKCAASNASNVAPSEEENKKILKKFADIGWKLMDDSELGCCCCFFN
Assay: PBM E-score (8-mer binding enrichment) (E-score (-0.5 to 0.5)); higher = stronger / more preferred TF binding; most listed sequences are background and not binding sites
Conditions: protein concentration: 200 nM; construct: GST-full length
In short: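 Bound GST-tagged yeast transcription factors, applied at about 100-200 nM to double-stranded universal all-10-mer Agilent arrays, were detected with fluorescent anti-GST. Scans were normalised with masliner. A modified Wilcoxon-Mann-Whitney statistic, the E-score, was assigned to each ungapped eight-base word pooled with its reverse complement by the Universal PBM Analysis Suite.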

Sequence	PBM E-score
ACTGCCCT	-0.159
AGCCCAGG	-0.308
GACTTGTA	-0.0325
TCCAGACA	-0.127
AACTGAGT	0.0318
CCTCCTCA	-0.274
AATGGTAT	0.0341
AGACACGC	-0.119
GTAACTCA	-0.11
GAGACGCC	-0.0848
ATCAAAGC	0.139
ACAGCTGT	0.0529
TAGCGAAA	0.157
TAGCTACA	0.112
TCGGCCGA	-0.046
GGAGAAAC	0.285
TCACCGGA	0.0852
CCCCTTTC	-0.262
CCCCACAC	-0.255
CAAGAGAC	-0.0846
ATCGCTGA	-0.00895
CGCGGCGC	-0.117
ACATAGAT	0.0459
ATGTGATG	0.0682
ACTCGGAA	0.163

Sequence	PBM E-score
ACAACCGC	-0.0548
TTCAGCAA	0.162
CCCCAATC	-0.267
TATCGGCA	-0.0356
ATTTCGAC	0.00349
ACCGCTCA	-0.00828
GGGCCCAC	-0.36
CGTCGCTC	-0.181
AATTTGAT	0.242
CGGGAGTA	0.171
GCAACAGC	-0.0851
ACCAAATG	0.0476
CGAAACAA	0.187
ACCCTAGT	-0.0891
GTCATGAC	-0.126
AAGAGCGA	-0.0384
GAAACTCA	0.0909
GCAATCCA	0.122
AATCTCGA	0.0193
CGTGGCCC	-0.278
CGGATAAG	-0.013
CGACTGCG	-0.218
GGGGTGCA	-0.219
ACCATATA	0.246
ATGCACGC	0.126

Sequence	PBM E-score
CGTACAAC	0.144
CCCCCCGA	-0.331
ATGGTCCG	0.129
ACATTTCG	0.0576
GTCCTGCA	-0.112
CAAGAAAC	0.202
ACATCAGT	0.036
CGGTGTTA	-0.0586
ATGCGGGC	-0.0914
ATGAGTAG	0.136
CGAGACAG	-0.0759
ACGTTGTC	-0.0499
AATAAACT	0.221
GACCTATC	-0.0417
GCCCTAGA	-0.367
CATGAGCG	-0.143
GAAAGTTA	0.218
AAGCACGC	0.053
AGTCGCAG	-0.0829
TCCTACAA	0.146
GGTTGGAA	-0.16
ACCAGGCT	-0.156
GGCCACTA	-0.184
CAACCCAA	0.07
GCCCCGTA	-0.286

Sequence	PBM E-score
TGCCCACA	-0.184
CGCCCGAA	-0.0773
AAACTCAG	0.0191
CCACCATC	-0.168
ATTCCATA	0.184
AGGAGCCC	-0.295
AAGTCGAC	0.0844
AACGGTCG	0.0267
CCTCGGCG	0.043
TGGGCTAA	-0.0063
AAAAAAAG	0.273
AAAACACA	0.21
CCTCAGTC	-0.0487
AGCAATTC	0.0769
AGGGCGCG	-0.0891
CTTCTTAA	0.124
AAATGCTC	0.16
CTTCAACA	0.0272
GATGAAAA	0.00976
CCTTCACC	-0.132
AGATTGGG	0.0807
TGAATTAA	0.226
ACGGGGTG	-0.117
CAACTATA	0.146
ACCGTCCA	0.0406

Sequence	PBM E-score
AAAACGCT	0.0375
AGGAATTC	0.129
CACCGCGA	0.0136
CAACGGTG	-0.316
ATGCAGCA	0.0882
AAAATTTC	0.132
ACGTCAAT	-0.0265
GATCGCCC	-0.204
ACTAGGTC	0.0292
TCTTATCA	0.211
ATTACCCA	0.129
AATGTTTA	0.221
CGATTTAC	0.0542
ACGAGCCG	0.0563
CGACGGCC	-0.243
ACAAGCTA	0.012
AGTGGGTC	-0.199
CTCCGTCA	-0.0826
AGCGCAAG	-0.0628
CTCAATCA	-0.0022
CCTGGCCC	-0.239
AGGCACCT	-0.275
AATCTGCT	0.00792
AGGTTGCC	-0.191
CTAAGTAA	0.153

Sequence	PBM E-score
ACGTAACG	-0.112
CCGTTACG	-0.188
GACGAGTC	-0.172
AGCGTAAC	0.215
AAAGTTGG	0.0498
AAAATGAT	0.369
GGTGCCAC	-0.264
TAATGATA	0.231
CGCTGCGA	0.0285
ACGCTCTA	-0.258
CTTTCCCA	0.0774
GCAAAGGC	-0.125
CACATAAG	-0.067
ATTAGAAA	0.135
AGTATACT	-0.0243
CACCGGGA	-0.153
GAGCGTAA	0.0655
AGCCAACT	-0.135
ACGCCGAT	-0.117
AACTGATT	0.0282
GGAAGACC	-0.111
CCATATAA	0.0777
AGCGTGCG	-0.0659
CCGCCCTA	-0.209
CATTTAGC	0.056

Sequence	PBM E-score
GTAGAAGA	0.0331
AATACGAA	0.203
CACAACCC	-0.0485
AACAGCTA	0.031
GAAGAGAC	0.0169
GCCAGGAC	-0.224
TAGGGACA	-0.0843
AAGAAGGG	-0.147
GGAAGAAA	0.34
CCCTTTGA	-0.129
GCAGCCCA	-0.227
AAACCTAG	0.0566
GCCGCACA	-0.153
ATATAACC	-0.0293
AAAATATA	0.28
AGTTTGGA	0.202
ATGCAAGG	-0.187
AAGTTCAA	0.214
AATCTCCC	-0.211
AATCAGGT	0.209
TCAACTCA	-0.0095
GAGCCAAA	-0.113
AGCTACCA	0.0753
CTATAAAG	0.0555
GATTTGCC	0.0208

Sequence	PBM E-score
GACCGTGA	-0.00429
CACCCATC	-0.117
AAAGCAAA	0.203
CAATTAAG	0.209
AAACAGGT	-0.0285
AGCTGTTC	-0.167
CTGTGGCC	-0.353
ACGAATGG	0.102
AATGCGCT	0.109
CGCAACCA	-0.0619
CTTTGGGC	-0.126
CAACGCTA	-0.235
CCCAGCAA	-0.118
GCTAACCC	-0.204
GTCAAGGA	-0.103
CGAGAGGA	-0.106
ATAGCTAG	-0.0835
CGACGGTA	-0.0307
CATTGCAG	0.0441
GATTTCTA	0.00415
CCAGAGAC	-0.0184
AGTTGACC	-0.0414
GAAGATTA	0.366
AACGAATT	0.216
TCATCACA	0.0229

Sequence	PBM E-score
CCAACAAA	0.227
ACACAGCT	0.036
TAGGTGCA	-0.0741
ACAGGAAG	-0.19
GAAGAACA	0.353
AAACCTAA	0.0716
ACGCACGG	-0.194
CAGGTGCC	-0.195
GACTCATC	-0.172
ATTCGGTA	0.139
AGATGGAC	0.0158
GTCGATAA	-0.161
ATGGGGGA	-0.165
CAACTTGA	0.253
AAAGAAGT	0.128
ACTGAGCA	-0.147
CCGTGTGA	-0.172
CGTGCAGA	-0.229
CATTCGAG	0.0185
AATTAAGG	0.129
TCTCGGAA	0.08
AGCCAAAG	-0.0877
CAGGGAAC	0.0159
AATTCAGT	-0.0238
AATACGCT	0.12

Sequence	PBM E-score
AAGAACCA	0.174
AAATGTGC	0.0669
GGCTCCGA	-0.219
TGCGACCA	0.0839
AATTACAT	0.238
CGGGACAA	-0.0717
CAGATGGC	-0.0398
CATATGGC	0.0842
ACATGAAA	0.00228
GTTGGTGA	0.0876
ATTTGAGG	-0.135
GGTCACTA	-0.0457
GATGTAGA	-0.1
GGCACCAA	-0.0873
ATTCGGAC	0.131
ATCGGTCG	-0.00188
AACGCAAC	0.00161
ACTAATAT	0.118
GTAAATGA	0.235
AAAGCTCG	-0.0135
GGTCTACA	0.136
ACTTCTCT	0.0454
CTGACTTA	0.215
AATTGCCC	0.092
TACCGTGA	-0.033

Sequence	PBM E-score
GAGACGGA	0.07
CTTACATC	0.0824
ATGGTGCA	0.0181
ATAGAGCG	-0.117
CTTGAGTC	-0.156
ACTGTCAA	0.00318
ATCGCCCG	-0.19
ACCGGTCA	-0.2
CCAGAACG	-0.124
AGCAGGCT	-0.291
CCATCGTC	-0.148
CACTGGTA	-0.102
ATCACTAG	-0.0619
AATAGAAT	0.278
GGTACACC	-0.202
GAGTCCAA	0.0691
GTACGCAC	-0.138
TATTCGAA	0.0583
CACCGGTA	-0.0543
CAGCTGTA	-0.19
CAGAAAAC	0.173
GTCAACAC	0.115
ACGGCTCG	0.135
CAACAGAC	0.139
TGACGGCA	-0.224

Sequence	PBM E-score
AATGTACT	0.144
CTAGTCCC	-0.204
CCCTAGCG	-0.311
ACAATCAA	0.165
GACGGAGC	-0.179
AAATGATG	0.248
AACGACAA	0.175
AGATTATC	0.301
ATCGGTGA	0.0274
AGTCCACG	-0.159
ATTACCGA	0.0859
CACATTCG	0.105
CTCCCTAA	-0.0573
AGCGAAGG	-0.154
CCGTTATC	0.0243
AATGCTCA	0.188
CGCGAACA	0.0214
CTTTCCGA	0.0129
ATGACCGC	-0.254
ACTGATCA	0.111
AATTGCTC	0.0628
ATAGATTA	0.329
GCCCGAAA	0.0856
CCGCTTTA	0.0166
GGGTGTTA	-0.071

Sequence	PBM E-score
AGACGCTG	-0.211
GCCGTCCA	-0.00942
CATCGCAG	-0.178
GGCTTCCA	-0.241
ATGATAAC	0.156
AGGTATGA	0.0821
ATGCAACG	-0.129
ACAACGTC	-0.0691
CAGATCTA	-0.039
CACCATGA	-0.0244
ATCACATA	0.215
GACGGTAC	0.143
GGATTCCA	0.0882
CACGGGTC	-0.288
CGCCCCTC	-0.382
GATGAGCC	-0.124
CCGTGTAG	-0.118
GCGTAAGC	-0.18
CAGCTATA	-0.0519
CGCTAAGA	-0.0745
ATGCATAG	0.082
CTCAGTCC	-0.0963
CAACCATA	0.196
CGAATCAA	0.19
CGCGTGCA	-0.171

Sequence	PBM E-score
ACTAGCAG	0.0656
CTGTAGTC	-0.0937
AGCTCTAC	-0.131
GAATTCCC	-0.223
ATACTAAG	0.101
CCTTGCCA	-0.0197
ATGCTGCC	-0.107
CCGAGAAA	0.179
GAAGCGCA	-0.118
GCCTCTAC	-0.179
ATAAGTTA	0.213
GGTAATAC	0.137
CCAGCAGC	-0.212
AGGGTCAA	-0.0277
ACCGATAA	0.189
GTCGTAAC	0.0613
AGCCCTTA	-0.0287
GACGTATA	-0.0124
ACGTCAGT	-0.153
